Laboratory results reported in PubChem BioAssay AID1508624 (National Center for Advancing Translational Sciences (NCATS), 2021).
In all, about 48,000 compounds went through this assay and about 120 (0.25%) were called active. Inconclusive results (about 4%) are left out. Calls come from the whole dose curve; as a rule, active = well fitted activation curve with a large enough effect; inconclusive = small, poorly fitted or top-dose-only effect, or another doubt; inactive = no such curve, though single readings can be large or run the other way. The list shows a part of the results.

Experiment: Primary qHTS for Identification of Small Molecule Activators of Huntingtin-Antisense Promoter Activity; note: nearly all actives have a fitted effect of over 55% in size
Conditions: HEK293 HTT-AS promoter firefly luciferase reporter (activity 0% = vehicle and -100% = no light), 24 h; series mostly up to 57.5 µM; activity change, positive = activation: at the top concentration
Outline: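 Luminescence was read after Dual-Glo reagent and a 10 min room-temperature incubation. Values were normalized to vehicle (0% activity) and zero RLU (-100% activity). Reporter HEK293 cells had been exposed to compounds (up to 57.5 uM final) for 24 h.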
Potency is the fitted concentration of half-maximal effect.

| SMILES | activity change, positive = activation | Potency |
| --- | --- | --- |
| O=C(NCc1cccs1)c1ccc2c(c1)N(Cc1cccc(F)c1)C(=O)c1ccccc1S2 | inactive: -28.8% | – |
| Nc1ccccc1NC(=O)c1ccc(CNC(=O)OCc2cccnc2)cc1 | inactive: 5.14% | – |
| COc1cccc(CNC(=O)Cn2nc(-c3ccc(Cl)cc3)ccc2=O)c1 | inactive: -10.4% | – |
| Cc1cccc2c1N(Cc1ccccc1OCCC(C)C)C(=O)C2=O | inactive: -32.3% | – |
| CC(=O)c1ccc(NC(=O)c2cc(C)nc3c2c(C)nn3-c2ccc(C)cc2)cc1 | inactive: -9.69% | – |
| COc1ccc(-n2c(=O)c3c(c4cc(OC)ccc4n3C)n(Cc3cccc(C)c3)c2=O)cc1 | inactive: -12% | – |
| COc1ccc2c(c1)c(=O)c(S(=O)(=O)c1ccccc1)cn2CC(=O)Nc1ccc(C)c(Cl)c1 | inactive: -10.7% | – |
| CCC(C(=O)Nc1cccc(-c2nc3cccnc3s2)c1C)c1ccccc1 (stereo not given) | inactive: 4.46% | – |
| COc1ccc(-n2cc(C(=O)NCCc3cc(OC)ccc3OC)c3ccccc3c2=O)cc1 | inactive: -21.9% | – |
| CCOC(=O)c1c(C)[nH]c(C)c1S(=O)(=O)N1CCCC(C(=O)NCc2ccc(N(C)C)cc2)C1 (stereo not given) | inactive: -3.47% | – |
| CC(C)CC(=O)Nc1nnc(S(=O)(=O)N(C)Cc2ccc(Cl)cc2)s1 | inactive: -2.67% | – |
| CC1=C(C(=O)Nc2ccc(C)cc2C)C(c2cccs2)n2nc(SCc3cccc(C)c3)nc2N1 (stereo not given) | inactive: -10.9% | – |
| CNC(=O)CSc1cn(CC(=O)N2CCCCCC2)c2ccccc12 | inactive: -11% | – |
| CCCc1nn2c(=O)cc(COC(=O)c3ccccc3NC(=O)COc3ccccc3)nc2s1 | inactive: -5.1% | – |
| CCOC(=O)c1cc(S(=O)(=O)Nc2cc(F)ccc2C)[nH]n1 | inactive: -8.23% | – |
| COc1ccccc1NC(=O)c1c(NCc2ccc(C)o2)sc2c1CCCCC2 | inactive: 3.52% | – |
| CCOC(=O)N1CCc2c(sc3c2C(=O)NC(c2cc(OC)c(OC)c(OC)c2)N3)C1 (stereo not given) | inactive: -31% | – |
| COc1ccc(-c2cc(C(F)(F)F)n3nc(-c4ccccc4)cc3n2)cc1OC | inactive: -4.57% | – |
| CCc1ccc(NC(=O)Cn2c(=O)n(CCC(C)C)c(=O)c3cccnc32)cc1 | inactive: -22.5% | – |
| CC(=O)Nc1nonc1-c1nnc(SCc2ccccc2F)n1C | inactive: -2.21% | – |

| SMILES | activity change, positive = activation | Potency |
| --- | --- | --- |
| CC(C)(C)C(=O)OCOC(=O)[C@@H]1N2C(=O)[C@@H](NC(=O)[C@H](N)c3ccccc3)[C@H]2SC1(C)C | inactive: -0.761% | – |
| CCc1ccccc1NS(=O)(=O)c1ccc2c(c1)CC(=O)N2 | inactive: -21% | – |
| Cc1ccc(/C=C/c2onc(C)c2S(=O)(=O)N2CCC(C(=O)Nc3ccccc3C(F)(F)F)CC2)cc1 | inactive: -7.23% | – |
| CC(=O)c1ccc(N2CCN(c3ncnc4c3c(-c3ccccc3)cn4-c3ccc(Cl)cc3)CC2)cc1 | inactive: -9.44% | – |
| CCCCSc1nnc2n(-c3ccc(OC)cc3)c(=O)c3c4c(sc3n12)COC(C(C)C)C4 (stereo not given) | inactive: 20.9% | – |
| COc1cc(CN2CCN(S(=O)(=O)c3ccc(NC(C)=O)cc3)CC2)cc(OC)c1OC | inactive: -2.82% | – |
| O=C1N(Cc2ccccc2Cl)c2ccccc2C1(O)c1c[nH]c2ccccc12 (stereo not given) | inactive: -39.2% | – |
| CC1=C(C(=O)OCC2CCCCC2)C(c2ccc(Cl)cc2)CC(=O)N1 (stereo not given) | inactive: -40.2% | – |
| C/C=C(/C(=C/C)c1ccc(OC(C)=O)cc1)c1ccc(OC(C)=O)cc1 | inactive: -9.71% | – |
| CCOC(=O)c1sc2ccccc2c1S(=O)(=O)Nc1ccc(C(C)=O)cc1 | inactive: 7.09% | – |
| CC(=O)c1ccc(NS(=O)(=O)c2c(C)nc3scc(C)n3c2=O)cc1 | inactive: -28.5% | – |
| Cc1cccc(Cn2c(=O)n(Cc3ccccc3)c(=O)c3c2c2cc(C)ccc2n3C)c1 | inactive: -6.53% | – |
| CCn1cc(C(=O)NCCc2ccc(OC)c(OC)c2)c(=O)c2cc(S(=O)(=O)N3CCCCCC3)ccc21 | inactive: -3.56% | – |
| CSc1ncc(C(=O)Nc2ccc(C)c(Cl)c2)c(-c2ccccc2)n1 | inactive: -38.5% | – |
| CCc1ccc(N(CC)C(=O)Cn2nc(Cc3cccnc3)c3ccccc3c2=O)cc1 | inactive: -28.9% | – |
| COc1ccccc1NC(=O)c1oc2ccccc2c1NC(=O)COc1cccc(C)c1 | inactive: -8.7% | – |
| COc1ccc(Cl)cc1NC(=O)N(C)CCc1c(C)nn(C)c1C | inactive: 7.41% | – |
| Cc1ccc2oc(-c3ccc(C)c(NC(=O)C(C)(C)Oc4ccc(Cl)cc4)c3)nc2c1 | – | active: 10 µM |
| COc1ccc(OC)c(NC(=O)CN2C(=O)CC(C)Sc3ccccc32)c1 (stereo not given) | inactive: -18.4% | – |
| CC(=O)CCC(=O)O | inactive: -2.27% | – |

| SMILES | activity change, positive = activation | Potency |
| --- | --- | --- |
| CCOc1ccc(NC(=O)CSc2oc(-c3ccc(F)cc3)nc2S(=O)(=O)c2ccc(C)cc2)cc1 | inactive: -10.7% | – |
| O=C(CCOc1ccccc1)N(Cc1cccnc1)c1nc2ccc(Cl)cc2s1 | inactive: 8.97% | – |
| Cc1ccc(CN(Cc2ccco2)C(=O)c2oc3cc(Br)ccc3c2C)cc1 | inactive: -24.5% | – |
| O=C(Nc1ccc(Br)cc1F)c1cc(S(=O)(=O)NC2CCCCC2)ccc1F | inactive: -23.7% | – |
| CCOC(=O)c1ccc(NC(=O)CSc2nc3cc4ccccc4cc3[nH]2)cc1 | inactive: -4.72% | – |
| Cc1nc2nc(NC(=O)c3ccc(C(C)(C)C)cc3)[nH]n2c(=O)c1Cc1ccccc1 | inactive: 8.83% | – |
| COc1ccc(CNC(=O)Cn2ccc3cc(S(=O)(=O)N4CCCCC4)ccc32)cc1OC | inactive: -30.3% | – |
| Cc1ccc(-n2c(=O)c3c4c(sc3n(Cc3cc(=O)n5ccccc5n3)c2=O)CCC4)cc1C | inactive: 21% | – |
| Cc1ccc(Cl)cc1-n1ncc2c(N3CCN(Cc4ccccc4)CC3)ncnc21 | inactive: -95.3% | – |
| COc1ccc(Cc2cnc(N)nc2N)cc1OC | inactive: -5.71% | – |
| CCOC(=O)c1c(NC(=O)c2ccc(S(=O)(=O)N(C)C3CCCCC3)cc2)sc2c1CCN(C(C)C)C2 | inactive: -22.1% | – |
| Cc1noc(C)c1S(=O)(=O)N(CC(=O)NCCc1ccccc1)c1ccc(C(C)C)cc1 | inactive: -18.9% | – |
| CCOCCCN1C(=O)c2ccccc2CC1(C)C(=O)NC1CCCCC1 (stereo not given) | inactive: -5.52% | – |
| COC(=O)c1ccccc1NC(=O)c1sc2nc(C)cc(C)c2c1NC(=O)c1ccccc1OC | inactive: 1.35% | – |
| COc1ccc(NC(=O)CSc2nc3c(oc4ccccc43)c(=O)n2Cc2ccco2)cc1Cl | inactive: -45.3% | – |
| COc1ccc(CNC(=O)CN2C(=O)CSc3ccc(S(=O)(=O)N4CCC(C)CC4)cc32)cc1 | inactive: -24.4% | – |
| CC1CCN(S(=O)(=O)c2nnc(NC(=O)c3cccc(Cl)c3)s2)CC1 | inactive: -69.7% | – |
| Cc1ccc(CCNc2ncnc3onc(-c4ccc(Cl)cc4)c23)cc1 | inactive: -21.8% | – |
| COc1ccc(-c2nc(S(=O)(=O)c3ccc(Cl)cc3)c(NCc3ccccc3)o2)cc1 | inactive: 7.34% | – |
| COc1cc(-c2nc(Cn3nnc(C(=O)Nc4cccc(Cl)c4)c3C)c(C)o2)cc(OC)c1OC | inactive: 0.129% | – |
